Tests used:
[1] = biological target: T1, recombinant human TrkA/Fc chimera (R&D systems) (human, UniProt P04629-2 33-407); assay: SPR (Biacore), 25-500 nM proNGF over immobilised TrkA-IgG-Fc
T1 construct: Bought from R&D systems; also called TrkA-IgG-Fc; not shown: IgG Fc part of the bought chimera

[2] = biological target: T2, purified human Sortilin extracellular domain (produced in stably transfected CHO cells) (human, UniProt Q99523 78-755); assay: SPR (Biacore), 25-500 nM proNGF over immobilised Sortilin extracellular domain
T2 construct: also called immobilized Sortilin
T2 sequence: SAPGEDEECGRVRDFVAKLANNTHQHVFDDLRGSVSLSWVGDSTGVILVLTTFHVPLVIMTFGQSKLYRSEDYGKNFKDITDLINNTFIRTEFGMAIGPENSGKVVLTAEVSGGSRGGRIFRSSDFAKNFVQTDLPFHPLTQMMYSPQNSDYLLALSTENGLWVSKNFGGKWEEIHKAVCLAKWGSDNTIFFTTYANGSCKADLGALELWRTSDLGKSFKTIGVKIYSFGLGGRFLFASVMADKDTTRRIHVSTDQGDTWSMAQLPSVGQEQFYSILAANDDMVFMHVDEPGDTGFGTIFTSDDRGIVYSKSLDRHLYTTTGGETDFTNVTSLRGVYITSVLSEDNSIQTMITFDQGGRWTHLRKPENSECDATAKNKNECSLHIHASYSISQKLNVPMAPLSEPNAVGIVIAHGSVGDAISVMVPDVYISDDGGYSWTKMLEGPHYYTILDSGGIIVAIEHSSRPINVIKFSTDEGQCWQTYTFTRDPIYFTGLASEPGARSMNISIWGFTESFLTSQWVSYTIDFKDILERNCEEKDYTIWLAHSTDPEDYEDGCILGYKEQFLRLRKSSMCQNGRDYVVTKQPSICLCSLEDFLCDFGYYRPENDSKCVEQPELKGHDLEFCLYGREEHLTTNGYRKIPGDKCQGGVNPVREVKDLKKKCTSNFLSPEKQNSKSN

Kd [1]: ~15 nM | Kd [2]: ~5 nM
B1: Human recombinant proNGF (produced and purified in E. coli) (ligand)
chain: not shown
notes: Made as in Rattenholl et al 2001

Reference: patent US20150023971A1 (H LUNDBECK A S, published 2015)
